From US20160024176A1 (AstraZeneca / MedImmune, published 2016)
Where “and” joins values, the source holds several entries; their conditions need not be identical. Equal values may be shown once.

How the values were obtained:
[1] = molecular target: T1, human OX40 (human, UniProt P43489 29-277); assay: cell-based or functional assay
T1 sequence (looked up): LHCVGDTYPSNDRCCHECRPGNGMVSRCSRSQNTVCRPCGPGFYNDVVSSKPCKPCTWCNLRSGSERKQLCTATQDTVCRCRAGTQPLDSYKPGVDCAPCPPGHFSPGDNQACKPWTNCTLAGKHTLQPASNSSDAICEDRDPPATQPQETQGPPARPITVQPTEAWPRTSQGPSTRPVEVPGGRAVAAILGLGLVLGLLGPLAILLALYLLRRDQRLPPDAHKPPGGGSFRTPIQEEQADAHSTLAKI

[2] = molecular target: T1, human OX40; assay: flow cytometry on activated primary human CD4+ T cells, Experiment #2
[3] = molecular target: T2, TNFRSF3 (LTβR) (human, UniProt P36941 31-435); assay: flow cytometry histogram on HEK293 cells transiently expressing LTβR, AlexaFluor 647 goat anti-human secondary antibody
T2 construct: whole, on cells; also called human LTβR; TNFRIII

[4] = molecular target: T3, TNFRSF18 (GITR) (human, UniProt Q9Y5U5 26-241); assay: flow cytometry histogram on HEK293 cells transiently expressing GITR, AlexaFluor 647 goat anti-human secondary antibody
T3 construct: whole, on cells; also called human GITR; AITR
T3 sequence (looked up): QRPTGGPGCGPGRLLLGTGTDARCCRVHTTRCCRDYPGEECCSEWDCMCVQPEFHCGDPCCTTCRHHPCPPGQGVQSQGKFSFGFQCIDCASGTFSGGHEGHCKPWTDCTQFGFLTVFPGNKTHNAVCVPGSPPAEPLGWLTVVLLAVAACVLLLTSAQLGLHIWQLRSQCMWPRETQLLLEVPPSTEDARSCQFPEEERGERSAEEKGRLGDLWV

[5] = molecular target: T4, cynomolgus monkey OX40 (cynomolgus monkey); assay: flow cytometry on activated primary cynomolgus monkey CD4+ T cells, lower panel
T4 construct: also called cyno OX40

[6] = molecular target: T5, rhesus monkey OX40 (rhesus monkey); assay: flow cytometry on activated primary rhesus macaque CD4+ T cells, upper panel
T5 construct: also called rhesus macaque OX40

[7] = molecular target: T4, cynomolgus monkey OX40; assay: flow cytometry, equilibrium binding to activated primary cyno CD4+ T cells, mean ± SD of 2 experiments
[8] = molecular target: T6, TNFRSF9 (CD137) (human, UniProt Q07011 24-255); assay: flow cytometry histogram on HEK293 cells transiently expressing CD137, AlexaFluor 647 goat anti-human secondary antibody
T6 construct: whole, on cells; also called human CD137; 4-1BB

[9] = molecular target: T1, human OX40; assay: flow cytometry on activated primary human CD4+ T cells, Experiment #1
[10] = molecular target: T1, human OX40; assay: flow cytometry, equilibrium binding to activated primary human CD4+ T cells, mean ± SD of 6 donors
[11] = molecular target: T7, rat OX40 (rat, UniProt P15725 20-271); assay: flow cytometry on activated primary rat CD4+ T cells, AlexaFluor 488 goat anti-human secondary antibody
T7 construct: whole, on cells; also called rat CD134
T7 sequence (looked up): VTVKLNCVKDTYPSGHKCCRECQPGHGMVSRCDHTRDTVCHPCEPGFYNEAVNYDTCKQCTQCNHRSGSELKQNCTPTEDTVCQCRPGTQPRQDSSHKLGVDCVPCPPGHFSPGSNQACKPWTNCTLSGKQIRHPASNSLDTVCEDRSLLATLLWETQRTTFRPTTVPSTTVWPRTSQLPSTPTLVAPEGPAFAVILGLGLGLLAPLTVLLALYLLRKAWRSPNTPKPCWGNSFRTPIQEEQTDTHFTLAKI

[12] = molecular target: T8, TNFRSF16 (NGFR) (human, UniProt P08138 29-427); assay: flow cytometry histogram on HEK293 cells transiently expressing NGFR, AlexaFluor 647 goat anti-human secondary antibody
T8 construct: whole, on cells; also called human NGFR; NGF receptor
T8 sequence (looked up): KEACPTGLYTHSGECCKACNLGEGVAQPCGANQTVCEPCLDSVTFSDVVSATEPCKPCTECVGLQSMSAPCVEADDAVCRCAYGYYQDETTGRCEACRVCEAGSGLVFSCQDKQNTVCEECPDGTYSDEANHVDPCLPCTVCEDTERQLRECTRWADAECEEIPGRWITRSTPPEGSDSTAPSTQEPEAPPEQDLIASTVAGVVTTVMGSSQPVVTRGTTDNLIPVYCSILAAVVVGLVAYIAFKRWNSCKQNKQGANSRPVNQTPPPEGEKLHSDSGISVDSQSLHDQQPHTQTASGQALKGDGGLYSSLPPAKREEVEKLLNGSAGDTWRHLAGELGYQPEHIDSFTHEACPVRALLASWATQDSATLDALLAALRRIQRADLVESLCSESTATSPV

[13] = molecular target: T9, human complement protein C1q (human, UniProt P02745; P02746; P02747); assay: surface plasmon resonance (ProteOn XPR36), C1q injected over immobilised OX40L IgG4P Fusion Protein
T9 construct: mature; Printed as Clq in the text; also called Clq; complement component C1q

[14] = molecular target: T1, human OX40; assay: flow cytometry, equilibrium binding to human OX40-expressing Jurkat NFkB-luciferase clone 64 cells, mean ± SD of 3 experiments
[15] = molecular target: T1, human OX40; assay: cell-based or functional assay; remark: listed apart in the source
[16] = molecular target: T5, rhesus monkey OX40; assay: flow cytometry, equilibrium binding to activated primary rhesus CD4+ T cells, mean ± SD of 2 experiments
[17] = molecular target: T4, cynomolgus monkey OX40; assay: flow cytometry on activated primary cynomolgus monkey CD4+ T cells, upper panel
[18] = molecular target: T10, TNFRSF14 (HVEM) (human, UniProt Q92956 39-283); assay: flow cytometry histogram on HEK293 cells transiently expressing HVEM, AlexaFluor 647 goat anti-human secondary antibody
T10 construct: whole, on cells; also called human HVEM; TR2
T10 sequence (looked up): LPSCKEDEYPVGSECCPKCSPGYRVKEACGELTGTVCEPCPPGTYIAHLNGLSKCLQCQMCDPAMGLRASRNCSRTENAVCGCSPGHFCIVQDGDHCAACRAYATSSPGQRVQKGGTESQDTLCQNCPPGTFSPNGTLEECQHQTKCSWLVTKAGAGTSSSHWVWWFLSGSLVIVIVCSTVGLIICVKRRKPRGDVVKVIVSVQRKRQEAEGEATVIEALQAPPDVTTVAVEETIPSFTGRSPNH

[19] = molecular target: T1, human OX40; assay: flow cytometry on activated primary human CD4+ T cells

T2 sequence (P36941 31-435): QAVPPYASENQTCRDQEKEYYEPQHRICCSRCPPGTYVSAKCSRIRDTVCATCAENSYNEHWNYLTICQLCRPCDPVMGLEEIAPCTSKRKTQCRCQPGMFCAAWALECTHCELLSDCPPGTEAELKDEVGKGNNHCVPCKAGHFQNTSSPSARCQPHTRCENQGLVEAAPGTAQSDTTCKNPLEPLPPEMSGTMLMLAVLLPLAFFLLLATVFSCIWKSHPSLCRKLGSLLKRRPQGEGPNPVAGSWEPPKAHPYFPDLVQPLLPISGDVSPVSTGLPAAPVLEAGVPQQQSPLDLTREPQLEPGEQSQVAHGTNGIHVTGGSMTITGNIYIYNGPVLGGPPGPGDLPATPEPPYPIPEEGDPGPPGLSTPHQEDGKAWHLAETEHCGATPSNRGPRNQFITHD
T6 sequence (Q07011 24-255): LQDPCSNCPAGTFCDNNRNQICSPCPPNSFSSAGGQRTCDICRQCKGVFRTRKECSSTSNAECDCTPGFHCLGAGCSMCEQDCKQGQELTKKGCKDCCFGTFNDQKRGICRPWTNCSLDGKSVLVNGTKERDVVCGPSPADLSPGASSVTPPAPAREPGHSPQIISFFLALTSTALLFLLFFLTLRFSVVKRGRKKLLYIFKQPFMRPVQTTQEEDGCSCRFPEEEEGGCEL
T9 sequence (P02745 23-245, chain 1 of 3): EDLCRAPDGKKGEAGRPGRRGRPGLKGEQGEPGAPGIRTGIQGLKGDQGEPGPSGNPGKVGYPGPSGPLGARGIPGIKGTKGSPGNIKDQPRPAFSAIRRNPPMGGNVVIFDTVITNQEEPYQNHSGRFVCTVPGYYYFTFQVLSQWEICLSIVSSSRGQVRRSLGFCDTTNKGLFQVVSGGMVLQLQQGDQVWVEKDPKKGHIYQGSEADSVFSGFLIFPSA
T9 sequence (P02746 28-253, chain 2 of 3, further chain): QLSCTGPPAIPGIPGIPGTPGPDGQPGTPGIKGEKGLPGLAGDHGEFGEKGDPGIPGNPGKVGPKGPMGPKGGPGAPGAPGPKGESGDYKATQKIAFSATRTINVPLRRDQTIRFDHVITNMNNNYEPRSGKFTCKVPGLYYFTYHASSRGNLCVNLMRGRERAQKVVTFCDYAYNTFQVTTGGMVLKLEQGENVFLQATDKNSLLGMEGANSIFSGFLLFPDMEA
T9 sequence (P02747 29-245, chain 3 of 3, further chain): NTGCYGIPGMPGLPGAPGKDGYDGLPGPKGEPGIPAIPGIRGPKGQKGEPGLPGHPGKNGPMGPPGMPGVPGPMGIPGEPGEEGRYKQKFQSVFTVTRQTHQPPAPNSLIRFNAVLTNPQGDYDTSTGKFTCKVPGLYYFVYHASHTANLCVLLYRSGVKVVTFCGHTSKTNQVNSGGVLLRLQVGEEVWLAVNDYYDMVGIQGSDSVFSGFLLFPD

B1: OX40L IgG4P Fusion Protein (Fc fusion)
chain: [sequence of human IgG4 Fc with S228P (EU numbers) not given]DQDKIEALSSKVQQLERSIGLKDLAMADLEQKVLEMEASTQVSHRYPRIQSIKVQFTEYKKEKGFILTSQKEDEIMKVQNNSVIINCDGFYLISLKGYFSQEVNISLHYQKDEEPLFQLKKVRSVNSLMVASLTYKDKVYLNVTTDNTSLDDFHVNGGELILIHQNPGEFCVL
notes: Hexamer of six identical subunits; expressed in HEK293, purified by Protein A and gel filtration; also called huIgG4PFcTF2OX40L; huIgG4FcPTF2OX40L
[1]
  CD4+ T cell proliferation EC50, donor 1, plate-based bioassay: 0.009 nM
  CD4+ T cell proliferation EC50, donor 2, plate-based bioassay: 0.025 nM
  CD4+ T cell proliferation EC50, donor 3, plate-based bioassay: 0.0005 nM
  CD4+ T cell proliferation EC50, donor 4, plate-based bioassay: 0.022 nM
  IFNγ release EC50, donor 1, plate-based bioassay: 0.012 nM
  IFNγ release EC50, donor 2, plate-based bioassay: 0.081 nM
  IFNγ release EC50, donor 3, plate-based bioassay: 0.058 nM
  IFNγ release EC50, donor 4, plate-based bioassay: 0.11 nM
  IL-5 release EC50, donor 1, plate-based bioassay: 0.03 nM
  IL-5 release EC50, donor 2, plate-based bioassay: 0.087 nM
  IL-10 release EC50, donor 1, plate-based bioassay: 0.022 nM
  IL-10 release EC50, donor 2, plate-based bioassay: 0.049 nM
  IL-10 release EC50, donor 3, plate-based bioassay: ~0.04 nM
  IL-10 release EC50, donor 4, plate-based bioassay: 0.089 nM
  TNFα release EC50, donor 1, plate-based bioassay: 0.018 nM
  TNFα release EC50, donor 2, plate-based bioassay: 0.065 nM
  TNFα release EC50, donor 3, plate-based bioassay: ~0.038 nM
  TNFα release EC50, donor 4, plate-based bioassay: 0.06 nM
[2]
  EC50 (read off the curve): ~0.005 nM and ~0.006 nM
[3]
  binding result: no binding (tested: 1 µg/mL (single concentration))
[4]
  binding result: no binding (tested: 1 µg/mL (single concentration))
[5]
  EC50 (read off the curve): ~0.003 nM
[6]
  EC50 (read off the curve): ~0.04 nM
[7]
  Kd: 0.0242 nM
[8]
  binding result: no binding (tested: 1 µg/mL (single concentration))
[9]
  EC50 (read off the curve): ~0.01 nM and ~0.004 nM
[10]
  EC50: 0.0066 nM
  Kd: 0.0036 nM
[11]
  binding result: no binding (tested: about 30 nM)
[12]
  binding result: no binding (tested: 1 µg/mL (single concentration))
[13]
  binding result: no binding (tested: 26 nM C1q)
[14]
  EC50: 0.016 nM
  Kd: 0.012 nM
[15]
  2-cell NFkB-luciferase reporter EC50, experiment 1, Raji: 0.012 nM
  2-cell NFkB-luciferase reporter EC50, experiment 2, CD32B-expressing HEK: 0.012 nM
  2-cell NFkB-luciferase reporter EC50, experiment 3, CD32B-expressing HEK: 0.0056 nM
  2-cell NFkB-luciferase reporter EC50, experiment 3, Raji: 0.015 nM
  2-cell NFkB-luciferase reporter EC50, experiment 4, Raji: 0.015 nM
  2-cell NFkB-luciferase reporter EC50, experiment 5, CD32B-expressing HEK: 0.112 nM
  2-cell NFkB-luciferase reporter EC50, experiment 6, CD32B-expressing HEK: 0.104 nM
  2-cell NFkB-luciferase reporter EC50, experiment 7, CD32B-expressing HEK: 0.102 nM
  2-cell NFkB-luciferase reporter EC50, experiment 8, CD32B-expressing HEK: 0.117 nM
  2-cell NFkB-luciferase reporter EC50, experiment 9, CD32B-expressing HEK: 0.134 nM
  2-cell NFkB-luciferase reporter EC50, experiment 10, CD32A-expressing HEK: 0.035 nM
  2-cell NFkB-luciferase reporter EC50, experiment 11, CD32A-expressing HEK: 0.025 nM
  2-cell NFkB-luciferase reporter EC50, experiment 12, CD32A-expressing HEK: 0.033 nM
  2-cell NFkB-luciferase reporter EC50, experiment 13, CD45+ cells, renal tumor: 0.042 nM
  2-cell NFkB-luciferase reporter EC50, experiment 14, CD45+ cells, renal tumor: 0.131 nM
  2-cell NFkB-luciferase reporter EC50, experiment 15, CD45+ cells, lung tumor: 0.037 nM
  2-cell NFkB-luciferase reporter EC50, experiment 16, CD45+ cells, renal tumor: 0.066 nM
[16]
  Kd: 0.0207 nM
[17]
  EC50 (read off the curve): ~0.03 nM
[18]
  binding result: no binding (tested: 1 µg/mL (single concentration))

B2: F180A OX40L fusion protein human IgG4P (Fc fusion)
chain: [sequence of human IgG4 Fc with S228P (EU numbers) not given]DQDKIEALSSKVQQLERSIGLKDLAMADLEQKVLEMEASTQVSHRYPRIQSIKVQFTEYKKEKGFILTSQKEDEIMKVQNNSVIINCDGFYLISLKGYFSQEVNISLHYQKDEEPLFQLKKVRSVNSLMVASLTYKDKVYLNVTTDNTSLDDFHVNGGELILIHQNPGEACVL
notes: Control variant of m1; also called huIgG4PFcTF2OX40L F180A; huIgGFcPTF2OX40L F180A
[19]
  binding result: no binding (tested: about 3e-9 M)
[11]
  binding result: no binding (tested: about 30 nM)
